The whole screen tested about 45,000 compounds, of which about 200 (0.44%) were called active. Inconclusive results (about 7%) are left out. Calls follow the shape of the dose curve; as a rule, active = well fitted activation curve with a large enough effect; inconclusive = small, poorly fitted or top-dose-only effect; inactive = no such curve, though single readings can be large or run the other way. The list shows a part of the results.
Assay: qHTS of TDP-43 Inhibitors: NCGC Sytravon Library Screen; also: 0% is about no effect; nearly all actives have a fitted effect of over 55% in size
Details: yeast TDP-43 toxicity rescue, BacTiter-Glo growth, 24 h; series mostly up to 46.1 µM; growth rescue (activation): at the top concentration
Procedure, shortened: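 TDP-43-expressing yeast, pregrown in raffinose, seeded at OD600 0.02 in galactose medium with compound for 24 hr at 30 deg C. Growth read by BacTiter-Glo luminescence, so rescue of toxicity appears as activation.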

SMILES	growth rescue (activation)
CCc1ccc(Sc2cc(C(=O)NCCN3CCOCC3)c3ccccc3n2)cc1	inactive: -15%
COc1ccc(N2CCN(c3ccc(S(=O)(=O)N(C(C)C)C(C)C)cn3)CC2)cc1	inactive: -7.7%
O=C(O)CSc1nnc(-c2ccc(Cl)cc2Cl)n1-c1ccccc1	inactive: 2.83%
CCn1cc(C(=O)O)c(=O)c2cnc(N3CCN(C(=S)NC(=O)c4ccc(Cl)cc4Cl)CC3)nc21	inactive: -25.6%
CCNNC(=O)C(O)(c1cccc(C)c1)c1cccc(C)c1	inactive: 27.1%
O=C(O)C/C(=C\c1cc(Br)cs1)c1nc2ccccc2o1	inactive: -81.5%
Cc1cccc(C(=O)OCC(=O)NC23CC4CC(CC(C4)C2)C3)c1O	inactive: -38.3%
O=C(CCc1nnc(CCCCc2ccccc2)o1)NCc1cccc(F)c1	inactive: 7.83%
Cc1ccc(NC(=O)C2C3C=CC4(O3)C2C(=O)N(CCCN2CCCCC2)C4C(=O)NC2CCCCC2)cc1Cl (centres undefined)	inactive: 3.78%
CC(C)(O)C#Cc1ccc(C(=O)NCCc2ccc(S(N)(=O)=O)cc2)cc1	inactive: 13.5%
C/C(CCc1oc2ccc(Br)cc2c1-c1ccc(C)o1)=N/O	inactive: 25.4%
C=C[C@]12CC[C@H](OC(C)=O)CC1=CCC1C2CC[C@@]2(C)C1CCC21OCCO1 (some centres undefined)	inactive: 15.6%
COc1ccc(C(O)c2ncc(-c3ccccc3Cl)[nH]2)cc1 (centres undefined)	inactive: 3.49%
CCN(CC)c1ccc([N+](=O)[O-])cc1C(=O)N1CCOCC1	inactive: 7.65%
COc1cccc(CN(C)CC(=O)NCc2ccccc2Cl)c1	inactive: 10.6%
COc1ccc(CCNc2nc(-c3sc(N)nc3C)cs2)cc1OC	inactive: 16.7%
OC(c1ccc(-c2ccccc2)cc1)c1ncc(-c2ccccc2)[nH]1 (centres undefined)	inactive: 3.44%
Cc1ccc(NC(=O)C2CCN(S(=O)(=O)c3c(C)noc3/C=C/c3ccco3)CC2)nc1	inactive: -1.61%
S=C(Nc1ccccc1)N1CCn2c(nc3ccccc32)C1	inactive: 2.88%
NC(=O)[C@@H]1CCCN1C(=O)c1cc(COc2ccc3c(c2)CCCC3)on1	inactive: 16.4%
CCOC(=O)COc1ccccc1/C=N/O	inactive: -0.038%
O=C(/C=C/c1ccccc1Cl)NNC(=O)c1cccs1	inactive: -17.5%
Cc1ccc(N2CC(C(=O)Nc3ccc4c(c3)OCCO4)CC2=O)cc1C (centres undefined)	inactive: 10.4%
O=C(O)/C=C/C(=O)OC1CC2CCC1C2 (centres undefined)	inactive: 20.4%
COc1cc(NC(=O)CN2CCN(c3ccccc3O)CC2)c(C)cc1[N+](=O)[O-]	inactive: 3.04%
Cc1nn(-c2ccccc2)c2c1cc1c(=O)n(C)c(=O)nc-1n2-c1ccccc1F	inactive: 5.36%
COc1cccc(CNC(=O)CSc2nnc3c(n2)[nH]c2ccc(C)cc23)c1	inactive: 14.7%
CCOc1ccccc1NC(=O)CCS(=O)(=O)c1cccs1	inactive: 8.89%
Cc1cc(C(=O)NCc2cccc(Cl)c2)c2ccccc2n1	inactive: 25.5%

Reference: PubChem BioAssay AID1347073 (National Center for Advancing Translational Sciences (NCATS), 2019)
